In the CheMixHub viscosity set:

| SMILES | viscosity (313.15 K, 101.33 kPa) | viscosity (298.15 K, 101.33 kPa) | viscosity (293.15 K, 101 kPa) | viscosity (298.15 K, 101 kPa) | viscosity (303.15 K, 101 kPa) |
| --- | --- | --- | --- | --- | --- |
| CC(=O)OCc1ccccc1 | 1.353 mPa·s [study A] and 1.487 ± 0.2 mPa·s [study B] | – | – | – | – |
| CCCCCCCCCCCCCCCC | – | 3.078 ± 0.024 mPa·s [study A] and 3.073 ± 0.023 mPa·s [study B] and 3.005 ± 0.068 mPa·s [study C] and 3.081 ± 0.027 mPa·s (3×) [study D] | – | – | – |
| ClC(Cl)Cl | – | 0.5475 ± 0.0055 mPa·s, 0.535 ± 0.0037 mPa·s, 0.542 ± 0.005 mPa·s, 0.533 ± 0.005 mPa·s, 0.5357 ± 0.0054 mPa·s, 0.5356 ± 0.0054 mPa·s, 0.5378 ± 0.015 mPa·s, 0.495 ± 0.014 mPa·s, 0.5565 ± 0.0078 mPa·s, 0.532 ± 0.015 mPa·s [several studies] | 0.5771 ± 0.015 mPa·s [study A] and 0.556 ± 0.006 mPa·s [study B] and 0.57 ± 0.012 mPa·s [study C] and 0.5706 ± 0.015 mPa·s [study D] | 0.5422 ± 0.014 mPa·s, 0.54 ± 0.014 mPa·s, 0.542 ± 0.006 mPa·s, 0.542 ± 0.0055 mPa·s, 0.504 ± 0.0051 mPa·s, 0.504 ± 0.012 mPa·s, 0.5426 ± 0.014 mPa·s, 0.542 ± 0.009 mPa·s, 0.532 ± 0.005 mPa·s, 0.532 ± 0.014 mPa·s, 0.539 ± 0.007 mPa·s, 0.55 ± 0.015 mPa·s, 0.527 ± 0.005 mPa·s, 0.54 ± 0.007 mPa·s (2×) [several studies] | 0.504 ± 0.0053 mPa·s [study A] and 0.5246 ± 0.0058 mPa·s [study B] and 0.61 ± 0.016 mPa·s [study C] and 0.504 ± 0.005 mPa·s [study D] and 0.635 ± 0.008 mPa·s [study E] and 0.5171 ± 0.014 mPa·s [study F] and 0.506 ± 0.005 mPa·s [study G] |

± gives the uncertainty stated by the source. A number of entries come with more than one value. They are shown here; other results are not. The source may hold further records. Values that stand side by side are repeats across runs, samples, wells, individuals or studies. What stands in brackets tells the records apart. Letters count within one entry. Counts like (3×) say how often a value occurs here.
